Experimental data reported in the supplement of paper PMC11417369.
± gives the standard deviation of the averaged measurements. The list shows a part of the results.

test system: PfAP2-I AP2 domain 3 (GST-tagged); assay: gcPBM binding intensity (ln(normalized median fluorescence intensity)); higher = stronger DNA binding
Summary of the method: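 After 1 h on an Agilent 4 × 180k array of primer-extended double-stranded 36-bp intergenic genomic probes and negative controls, bound GST-tagged P. falciparum DNA-binding domains were detected with Alexa488 anti-GST antibody and scanned at 488 nm. The domains had been expressed in E. coli, and binding took place in 1× PBS with 1% milk, 0.2 mg/ml BSA, 0.5% salmon testes DNA and 0.03% Triton X-100. Binding intensity is the highest Masliner-normalised natural-log median intensity across replicate spots of either probe orientation.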

| Sequence | gcPBM binding intensity (ln) |
| --- | --- |
| ATAACATACATAACAACACACAATATTTATATGTAT [CACACA_site210] | 7.75 ± 0.45 |
| AATACATAAATATTTTGTACATATTATATAAAATAT [XGTACX_site1627] | 7.63 ± 0.45 |
| CTTGTACCTAGAAATACACACAATTATATAACTTAT [CACACA_site2838] | 7.8 ± 0.46 |
| ATGAAAAAAAAAAAAAAAAAAAAAAAAAAAAAAAAA [CACACA_negctrl_site1405] | 8.68 ± 1.1 |
| ACTTTTTAATAATAATAATTATATATATATATATAT [TGCATGCA_negctrl_site459] | 9.16 ± 0.014 |
| ATATATATTTAATTTACACACAAAAAAAATTGTTGG [CACACA_site961] | 7.67 ± 0.65 |
| TATAAGAAAATAATGTGTACTAAATAATAAATGCAT [XGTACX_site1204] | 8.35 ± 0.46 |
| CCACATGAGATGATTACACACATATAAATATTTACA [CACACA_site6222] | 7.84 ± 0.54 |
| TAATGACTGAAAAATTGTACATATGTATATATGTAT [XGTACX_site2415] | 7.92 ± 0.7 |
| ATTCTATTATAATATTCACACACTAACGTAAATCAT [CACACA_site2750] | 8.05 ± 0.33 |
| TATACATACATACATACACACACACCGATATATATA [CACACA_site7896] | 8.16 ± 0.52 |
| ATAATTTTCCATATTTGTACATATTTTTTTCCCTTG [XGTACX_site8146] | 8.01 ± 0.76 |
| AATTTAAATTAGAATTGTACTAGAAAAGGAATATAT [XGTACX_site6162] | 8.12 ± 0.44 |
| AATATAAATAAAAACACACACAATGGTACAGATATA [CACACA_site5930] | 8.02 ± 0.47 |
| AATTATATAATCTTATAACATAATATAATAACATTT [CACACA_negctrl_site187] | 7.41 ± 0.45 |
| CATACATACGGACACACACACATATATATATATATA [CACACA_site5598] | 9.26 ± 0.42 |
| ATAATGTTTCTTTCAACACACAAAAAATGAACACAT [CACACA_site1552] | 8.03 ± 0.66 |
| AAAAAAGAAAAAAGGACACACATAAATATACTCACG [CACACA_site2904] | 7.8 ± 0.57 |
| AAAAAAAAAAAATAGACCTCCTAAGCAAAAGAAAAA [GTGCAC_negctrl_site634] | 7.82 ± 0.15 |
| TATATAAGCGCATGCACACGCAAAGGTATATAAATA [CACACA_site622] | 8.03 ± 0.56 |
| TAAAAAATATTATATACACACAGTATAAAAAAAAAT [CACACA_site4012] | 7.66 ± 0.62 |
| TTATCCTATACAAGGGAAAAATAAAATAAAATAAAT [TGCATGCA_negctrl_site272] | 7.53 ± 0.68 |

| Sequence | gcPBM binding intensity (ln) |
| --- | --- |
| AGTGTCATATAAAATTGTACTTTTTTTTTTTTCTTT [XGTACX_site5651] | 8.42 ± 0.31 |
| ATATACATATTATAATGTACATATTTTAATAACCTT [XGTACX_site7617] | 7.72 ± 0.43 |
| ATTGATTATTTTCTAGTGCATAAAATAATTTTTTTT | 10.5 ± 0.51 |
| TAAGAAAGACAAAAAAAATGAAAAGAAAAAAAATGA [CACACA_negctrl_site1469] | 7.51 ± 0.65 |
| AAATGTTGAAAAATATGTACATATTATATATATTAT [XGTACX_site1165] | 7.85 ± 0.2 |
| ATTTAGAAAAAATATACACACAGCCTAAACATGCAT [CACACA_site4067] | 7.7 ± 0.67 |
| AATATAAGCAAATACACACACACATATATATATATA [CACACA_site3805] | 9.34 ± 0.25 |
| TATTTATTTGTTTAAGGTACAGAACAAATTTTTATT [XGTACX_site7414] | 7.75 ± 0.43 |
| ATATTTATTATTATATGTACGTAACATCTTTATAAA [XGTACX_site7016] | 8.13 ± 0.32 |
| CATAAATACATACATACACACATATATATATATATA [CACACA_site2106] | 9.23 ± 0.42 |
| AAATGTTCTTAAAAATGAATAATATATATATATATA [CACACA_negctrl_site796] | 9.06 ± 0.2 |
| ATTATATATATGTGCACACAAAAGATATATATATAT [CACACA_site5205] | 10.2 ± 0.13 |
| ATATTTATTTGTTAGTGTACATACATATATATATAT [XGTACX_site1347] | 9.47 ± 0.4 |
| AAATAATTTACTTAATGTACATATATATATATATAT [XGTACX_site8594] | 9.42 ± 0.24 |
| TTTTAATTTATTTATGCACACATATATAATTACACA [CACACA_site8126] | 9.8 ± 0.35 |
| AAAAATAAACAATATATAGTTATATATATATATATA [TGCATGCA_negctrl_site82] | 9.29 ± 0.69 |
| AAGCACAAAAAATACACACACAAAAAATAAAAAAAG [CACACA_site1840] | 7.87 ± 0.47 |
| TATATATATCTGTACACACACACATATAAATAAATA [CACACA_site4405] | 8.37 ± 0.23 |
| GAGAAATGGGGACACACACACATATTATATATATAT [CACACA_site4943] | 9.2 ± 0.085 |
| ATATAAATATATGTATGTACGCATGTATGTATCTAT [XGTACX_site3290] | 8.16 ± 0.27 |
| TATATGCATAATAACTGTACACAAATTGGGGTTGAT [XGTACX_site459] | 8.37 ± 0.36 |
| ATGTATGTTTGTTATGCACACAAATGCATCTTATTT [CACACA_site8861] | 10.12 ± 0.021 |

| Sequence | gcPBM binding intensity (ln) |
| --- | --- |
| ATAATGAACAATATTATATATAAAATATAATTTATA [GTGCAC_negctrl_site564] | 7.34 ± 0.34 |
| ATTATGTATACATAAACACACATATATATAAAAAAA [CACACA_site262] | 7.92 ± 0.64 |
| AAATTAAGTATATATTGTACACATAATATGATTGTA [XGTACX_site3083] | 7.56 ± 0.35 |
| TTATTTTCATATAGGTGTACATAAAAATATTCTTAT [XGTACX_site8861] | 8.21 ± 0.23 |
| TAAGTTTATTGAAATTGTACAAACATAAATGTAAAA [XGTACX_site162] | 7.86 ± 0.61 |
| TTATATTTTTTTTTTTCACACACATTTATATTGTAT [CACACA_site9025] | 7.88 ± 0.76 |
| TATACTAAGAAGTATTTACACACCAACAAGGCGAAA [CACACA_site8963] | 7.7 ± 0.78 |
| ATGTTCATTATATGCACACATATATATAAATGTAAT [CACACA_site2908] | 9.34 ± 0.3 |
| TATCATAAAAAATATACACACAAAGGATATATATAT [CACACA_site1571] | 8.855 ± 0.021 |
| TGTGCCTATAAATTAACACACAGAAATATATAGAGA [CACACA_site818] | 9.11 ± 0.66 |
| TTATTCTGACAGAATTGTACTAATGTCTTTAAAAAA [XGTACX_site1256] | 7.5 ± 0.47 |
| TATTTGTTTGTTCGGGTGCTTACATATATTCTTATA [GTGCAC_site9972] | 9.04 ± 0.16 |
| TTAATTAGAAATCATACACACATATAAATAAATATA [CACACA_site6225] | 7.5 ± 0.45 |
| AATTATATACATAAGTGTACATAATATATAAACATA [XGTACX_site793] | 7.72 ± 0.28 |
| TTTTCAATTAATAATACACACATGTATTTATTATTA [CACACA_site5774] | 7.83 ± 0.34 |
| TGTTGTAAATTAAAGACATGCACGTGAGAAAATATA [TGCATGCA_site285] | 9.54 ± 0.54 |
| TATATATATTTTATATGTACGTATGGAACAATATGA [XGTACX_site8167] | 8.16 ± 0.13 |
| TTTTCTATGCTAAACACACTCATTGTTACAAGTTTT [CACACA_site5531] | 8.01 ± 0.71 |
| TTATTTATTTTTTATACACACAATTATCATTTTAAG [CACACA_site22] | 7.96 ± 0.48 |
| CTTATGTGCATACCTACACACTTACAGATATATATA [CACACA_site5622] | 8.51 ± 0.24 |
| TTCAAATATTTTATTTGTACATAAAAAAGAAAGTTA [XGTACX_site8287] | 7.87 ± 0.057 |
| TAGGAAGAATTACTGTGTACTAAAATATTAAAAAGT [XGTACX_site4909] | 8.22 ± 0.67 |

| Sequence | gcPBM binding intensity (ln) |
| --- | --- |
| ATAAATGAAAAAAAGCGTACATATAAAAAAATATAT [XGTACX_site5063] | 8.02 ± 0.33 |
| TGTAAATAATATAATAGTACGCATATTTTTATTGAA [XGTACX_site284] | 7.87 ± 0.17 |
| ACTTACCCATTTATTACACACATAAAGGAAAATTTT [CACACA_site4873] | 8.46 ± 0.59 |
| TGTTTATGTATCAATTGTACAAAAAAAAAAAAAAAA [XGTACX_site1590] | 8.16 ± 0.83 |
| TTCAAAAAAATGTATACACACATAAGTATAATATAA [CACACA_site3758] | 7.61 ± 0.62 |
| GATTTTTTTTTTTTTTCACACACTAATAATATTATC [CACACA_site464] | 7.95 ± 0.72 |
| ATTATTAAAAAGATGTAAATAAATGAATATATGCTT [CACACA_negctrl_site539] | 7.79 ± 0.61 |
| TATTAAGAATTTACATGTACTTGTTAAATAAGAAAA [XGTACX_site4466] | 7.82 ± 0.53 |
| TTCTATATATTTTAATGTACATATATGATTATTCTT [XGTACX_site8294] | 7.95 ± 0.37 |
| ATATAGTATAATAAAAGTACATTTTGATTTTTTCTC [XGTACX_site1797] | 7.62 ± 0.5 |
| TAAATAATATCTATCACACACGCATATATACATATA [CACACA_site2622] | 7.56 ± 0.55 |
| GTCGCATTTTATACAAGTACACATGAATTATACAAC [XGTACX_site2200] | 8.505 ± 0.064 |
| ATTTATAATCAGGGTTGTACACTTATAGAATTTTTA [XGTACX_site4175] | 7.72 ± 0.46 |
| ATATAAATATATGGAAGTACACAAAAAAATTAAAAA [XGTACX_site8624] | 8.02 ± 0.28 |
| CATAAGAAAATAAAAACATGCACATAAGAAATATAC [TGCATGCA_site842] | 8.41 ± 0.87 |
| AATCTTCATACCAACACATGCACAAAAGAAATAAAA [TGCATGCA_site563] | 8.78 ± 0.83 |
| TATATTTATACATATTGTACATTTTATACTTTTACA [XGTACX_site3884] | 7.76 ± 0.52 |
| ACCTAAGAACTATTTACACACATATACAAAATATAT [CACACA_site2459] | 8.04 ± 0.42 |
| ATTGTTCTATGATTTGTACACACTTTTTTTTAAAAT [CACACA_site2825] | 8.43 ± 0.46 |
| CATATAAAAATATGCACACACAGGAATACAAACATA [CACACA_site684] | 8.91 ± 0.11 |
| AATAAAAAACTACAATATACAAAATTATTAAATCAA [GTGCAC_negctrl_site703] | 7.32 ± 0.39 |
| AAACGTACATAATACACACACATGTATCCATATAAA [CACACA_site5173] | 8.28 ± 0.28 |
